This is an account of results in paper PMC4242493.

The list shows a part of the results. The list includes weakly bound sequences.

In the assay the target is MaxL homodimer (UniProt P61244). Kind of assay: universal protein-binding microarray (PBM). To be noted: PBS-based mixture, 10 nM His-tagged protein dimer, 2% milk, 200 ng/uL BSA, 50 ng/uL salmon testes DNA, 0.02% TX-100; detection with Alexa 488 anti-His …; high values mean tight binding; most listed sequences are background and not binding sites; double strand, one strand shown.
Sequence of UniProt P61244 (P61244 whole entry): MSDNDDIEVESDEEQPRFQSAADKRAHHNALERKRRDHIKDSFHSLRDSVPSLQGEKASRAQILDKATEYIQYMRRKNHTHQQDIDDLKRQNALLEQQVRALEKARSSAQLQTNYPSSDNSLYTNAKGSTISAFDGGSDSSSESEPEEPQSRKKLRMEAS
For AGTCCCAT, the binding signal (normalized occupancy) came to 0.08.
As for CGAAGAGA, the figure is 0.071; as for AAGTACCA, 0.08.
The result for AATCAGTA reads 0.0786; that for GAACTCTA, 0.0729.
Turning to AGGCCTAC, the binding signal (normalized occupancy) stood at 0.0722.
As for ACTTTGAG, the figure is 0.0717; as for ACTGCCTC, 0.075.
The result for TAAAAGAA reads 0.0707; that for AACTAACT, 0.0696; that for GAGTGACA, 0.0792.
The result for GAACCAAC reads 0.0752; that for GGTGACTA, 0.0779.
Turning to CCAAGCCC, the binding signal (normalized occupancy) was found to be 0.0739.
As to CGAATCAA, the binding signal (normalized occupancy) stood at 0.0766.
In the case of CCACAGAG, the binding signal (normalized occupancy) amounted to 0.0712.
As for GATTCAGC, the figure is 0.0711.
For the sequence ATGTGTAA, the binding signal (normalized occupancy) was determined as 0.0874.
With GGCAGTGA, the binding signal (normalized occupancy) came to 0.0745.
As for CGCGTTAA, the figure is 0.0766; as for CTAGGGTA, 0.0774.
The result for CGGATTAG reads 0.0726.
The result for CTGGAATA reads 0.0747; that for ACGTACGG, 0.0786.
For the sequence ATCACCCC, the binding signal (normalized occupancy) came out at 0.0843.
The result for GGCTAACA reads 0.0749; that for CCCTCTCG, 0.07; that for AACCTCGA, 0.0736.
As for CTGGTAAG, the figure is 0.0719; as for AGCATTCA, 0.0761.
The result for CCGAGCGC reads 0.0635.
As for TGCTCACA, the binding signal (normalized occupancy) came to 0.0845.
Take AACGCCCT: the binding signal (normalized occupancy) was found to be 0.0713.
The result for CCGTTTAC reads 0.0717; that for CGAGGTAA, 0.0755.
The result for AATCCTGT reads 0.0769; that for ACAACTGC, 0.0673; that for TAGGTTCA, 0.0728.
The result for ACCATGCT reads 0.123.
As to CAATTTCG, the binding signal (normalized occupancy) is 0.0732.
The result for ATGCAAGA reads 0.0753; that for CCGTAGAC, 0.0698; that for GCTACGCC, 0.0731.
The result for GGTCTGTA reads 0.0752; that for GTAGGTCA, 0.0728; that for CCACAGGG, 0.0708.
As for GCCCATAA, the figure is 0.0767; as for CAATGCGG, 0.0873.
As for ACTAATGA, the binding signal (normalized occupancy) is 0.0785.
The result for AGAGTTAC reads 0.076; that for CCTCGGTA, 0.067.
For the sequence TCCGACCA, the binding signal (normalized occupancy) amounted to 0.0753.
As for ATAGGGAG, the figure is 0.0783; as for CTTCAACC, 0.0737; as for ACGCTTTA, 0.0766.
As for CTCCTCGC, the figure is 0.0739; as for ACTGAAAC, 0.0742; as for CCAAGGCA, 0.0725.
The result for TACTGCCA reads 0.0744.
Turning to CATCTACC, the binding signal (normalized occupancy) turned out to be 0.0776.
For AACCTCTC, the binding signal (normalized occupancy) turned out to be 0.0764.
As for CCCAGACG, the figure is 0.0707; as for ATGTAGTC, 0.0848; as for GATAGGGA, 0.0753.
The result for AGTGACGG reads 0.0686.
Consider GCGGGGCA, for which the binding signal (normalized occupancy) is 0.0727.
The result for GCACCTCA reads 0.078.
The result for AGCGAGCT reads 0.0711; that for AAGGTTCC, 0.0697; that for CTTAGCAA, 0.0727.
The result for ATACAGAG reads 0.0772; that for TATCGAAA, 0.0728.
Take GAATCATA: the binding signal (normalized occupancy) amounted to 0.0847.
As for ATGCACCC, the figure is 0.0839; as for ACTACAGA, 0.0771; as for CCATGTAG, 0.0836.
The result for AAATATCG reads 0.0743.
Turning to ATCAGGCA, the binding signal (normalized occupancy) was 0.0754.
As for GAATCGAA, the figure is 0.0761; as for CTGTGACC, 0.0734.
With AGACTTTG, the binding signal (normalized occupancy) stood at 0.0675.
As for CACAGCAA, the figure is 0.0762; as for CGTGGGTC, 0.085; as for ACAGATCC, 0.0755.
For AGGACCAT, the binding signal (normalized occupancy) is 0.0823.
As for CTATAACA, the binding signal (normalized occupancy) worked out at 0.0846.
The result for ACGCAGCT reads 0.0702.
As for CGGGTAGC, the figure is 0.071; as for GGCAGAAC, 0.0729.
As for CAAGCCGC, the figure is 0.0704; as for CTGCCTCA, 0.0739.
As to CGCGATAC, the binding signal (normalized occupancy) was found to be 0.0814.
The result for ATGCATTA reads 0.0869.
As for AAGGGTAT, the figure is 0.0811.
As for AGCACTCA, the figure is 0.0784; as for TCATGACA, 0.0841; as for GGCGAAAA, 0.0711.
Regarding GATAGTAA, the binding signal (normalized occupancy) was determined as 0.0764.
The result for GATCATAA reads 0.0852; that for AATATTGA, 0.0777.
On to CCCGATGC, for which the binding signal (normalized occupancy) is 0.0722.
Consider GCAACCCC, for which the binding signal (normalized occupancy) was 0.0708.
The result for AACGTCCT reads 0.0751; that for ACCGCACA, 0.084; that for AAACTGAG, 0.0651.
The result for ACTGTTCA reads 0.073.
Consider ATGCGGTG, for which the binding signal (normalized occupancy) stood at 0.0807.
For ATGACTTC, the binding signal (normalized occupancy) was determined as 0.0712.
The result for CCGAAACC reads 0.078.
